# Screen size: about 310,000 compounds; about 14,000 (4.5%) showed an effect of 50% or more. Effects have a minus sign here. The list shows a part of the results.
# Biological target: human ether-à-go-go-related gene (hERG) potassium channel (human, UniProt Q12809)
# Experiment: primary screen, population patch clamp on CHO cells stably expressing hERG
# 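Also: peak tail current of the secondary pulse compared with the same well before compound.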
# human ether-à-go-go-related gene (hERG) potassium channel, sequence (Q12809 whole entry, looked up): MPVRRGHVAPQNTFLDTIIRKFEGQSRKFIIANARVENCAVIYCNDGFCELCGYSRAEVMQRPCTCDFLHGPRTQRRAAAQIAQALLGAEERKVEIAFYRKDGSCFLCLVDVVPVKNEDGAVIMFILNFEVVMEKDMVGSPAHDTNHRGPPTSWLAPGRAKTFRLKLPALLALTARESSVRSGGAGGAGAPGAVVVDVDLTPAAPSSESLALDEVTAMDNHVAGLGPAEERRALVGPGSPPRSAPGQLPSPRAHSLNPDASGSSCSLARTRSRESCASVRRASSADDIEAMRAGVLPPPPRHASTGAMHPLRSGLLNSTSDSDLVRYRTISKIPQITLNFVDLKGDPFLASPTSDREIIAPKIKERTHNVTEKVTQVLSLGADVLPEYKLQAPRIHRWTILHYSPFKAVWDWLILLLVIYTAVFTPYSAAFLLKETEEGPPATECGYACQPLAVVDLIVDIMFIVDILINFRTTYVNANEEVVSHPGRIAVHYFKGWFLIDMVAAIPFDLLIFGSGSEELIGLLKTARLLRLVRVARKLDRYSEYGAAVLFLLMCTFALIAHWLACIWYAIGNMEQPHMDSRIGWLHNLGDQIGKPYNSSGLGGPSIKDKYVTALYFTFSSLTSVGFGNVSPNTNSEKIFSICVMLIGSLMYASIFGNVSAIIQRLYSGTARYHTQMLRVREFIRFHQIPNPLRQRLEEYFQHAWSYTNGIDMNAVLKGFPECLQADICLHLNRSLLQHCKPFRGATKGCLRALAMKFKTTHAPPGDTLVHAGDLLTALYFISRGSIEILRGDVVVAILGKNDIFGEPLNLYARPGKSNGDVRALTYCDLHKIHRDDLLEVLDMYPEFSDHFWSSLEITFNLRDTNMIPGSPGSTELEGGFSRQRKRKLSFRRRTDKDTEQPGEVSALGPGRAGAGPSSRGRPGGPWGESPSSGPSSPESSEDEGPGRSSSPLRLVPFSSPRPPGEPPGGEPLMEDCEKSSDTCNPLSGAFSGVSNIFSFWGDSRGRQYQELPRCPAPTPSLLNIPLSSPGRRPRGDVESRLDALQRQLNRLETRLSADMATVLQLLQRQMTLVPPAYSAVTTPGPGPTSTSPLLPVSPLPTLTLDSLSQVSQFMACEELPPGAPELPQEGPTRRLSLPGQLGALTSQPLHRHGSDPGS
row,SMILES,"hERG current change (%, negative = inhibition) at 10uM [%]"
1,CCCc1nc2nc(C)c(NS(=O)(=O)c3ccc(C4CCCCC4)cc3)c(=O)n2[nH]1,10.3
2,COc1cccc(NC(=O)NCCC2=CCCCC2)c1,-13.1
3,CCCCNC(=O)CNC(=O)c1nn(-c2ccc(OC)cc2)c(=O)c2ccccc12,-1.58
4,O=C(COC(=O)c1ccc(Cl)c(Cl)c1)Nc1cccnc1Cl,2.06
5,COc1cc(S(=O)(=O)NCc2ccncc2)ccc1Br,10.6
6,CC(=O)c1ccc(NC(=S)Nc2ccc(Br)c(Cl)c2)cc1,12.6
7,CCOc1ccc(N(Cc2cc3ccc(C)cc3[nH]c2=O)C(=O)COC)cc1,-28.5
8,Cc1ccccc1NC(=S)NC(C)C(c1cccs1)N1CCOCC1 (stereo not shown),2.05
9,COc1ccc(/C=C/C(=O)OC2CCCCC2CN(C)C)cc1.Cl (stereo not shown),-13.2
10,C/C(CC(=O)Nc1ccc([N+](=O)[O-])cc1)=N\NC(=O)c1ccccc1O,1.24
11,O=C(CN1CCN(Cc2ccccc2)CC1)NCCc1ccccc1,-8.09
12,COCCn1c(SCC(=O)NCc2ccccc2)nc2ccccc21,1.06
13,O=C(COc1ccccc1Cl)Nc1cccnc1,-8.34
14,CCCCOc1ccc(Cc2c(COCC)[nH]c(=S)[nH]c2=O)cc1,-13.7
15,COc1ccc(S(=O)(=O)N2CCOCC2)cc1NC(=O)Cc1ccccc1Cl,8.42
16,O=C(N/N=C\c1cccnc1)c1cc(-c2ccc(Cl)s2)[nH]n1,-1.87
17,COc1cc(NC(=O)CCCC(=O)OCC(F)(F)C(F)F)nc(OC)n1,-11.2
18,CS(=O)(=O)N1CCCC(C(=O)Nc2ccc(F)cc2)C1 (stereo not shown),-1.33
19,CCN1C(=O)C2C(C1=O)N1C(c3cccs3)C3C(=O)N(CC)C(=O)C3N1C2c1cccs1 (stereo not shown),15.7
20,O=C(C1CCN(c2nnc(-n3cccc3)s2)CC1)N1CCOCC1,-13.9
21,Cc1ccc(C(C)C)cc1OCCOCCN1CCCC1,-38.9
22,O=C1CC(SC(=Nc2ccccc2)Nc2ccccc2)C(=O)N1c1cccc2ccccc12 (stereo not shown),14.4
23,Cn1c(SCC(=O)N2c3ccccc3CCc3ccccc32)nnc1-c1cc2ccccc2cc1O,12.9

row,SMILES,"hERG current change (%, negative = inhibition) at 10uM [%]"
1,COCC1CCCN(C(=O)c2ccc3oc(Cc4ccc(Cl)cc4)nc3c2)C1 (stereo not shown),-24.7
2,O=c1c2cc3c(cc2[nH]c(=S)n1Cc1ccco1)OCO3,4.18
3,Cc1cc(Nc2cccc(F)c2)n2nc(C)nc2n1,-12.1
4,CCOc1ccccc1CN1C(=O)c2ccccc2C1C(=O)NCC1CCCO1 (stereo not shown),6.19
5,CCOC(=O)Cc1csc(NC(=O)C(C)(C)CC)n1,1.22
6,CCOC(=O)c1c(NC(=O)NC(C)(C)C)sc2c1CCN(C)C2,-21.4
7,O=C(CN1C(=O)NC2(CCc3ccccc32)C1=O)c1ccc(F)c(F)c1 (stereo not shown),-17.1
8,O=S(=O)(NCC(O)COCc1ccco1)c1cccs1 (stereo not shown),18.5
9,Nc1c(C(=O)OCC2CCCO2)c2nc3ccccc3nc2n1-c1ccc2c(c1)OCCO2 (stereo not shown),12.5
10,CN(CC(=O)Nc1cccc(F)c1)C(=O)CCN1C(=O)C2CC=CCC2C1=O (stereo not shown),-2.42
11,Cc1cc(C)c(OCC(=O)OCC(=O)NNC(=O)c2ccccc2F)c(C)c1,4.54
12,COc1ccc2[nH]c(C)c(CCNCc3cc(OC)c4c(c3)OCO4)c2c1.O=C(O)C(=O)O,-17
13,CSc1nc(N)nc(SCC(=O)C(C)(C)C)c1C#N,-10.5
14,CCCN(C(=O)c1ccc(N2CCCC2=O)cc1)c1c(N)n(Cc2ccccc2)c(=O)[nH]c1=O,-1.79
15,COc1ccc(S(=O)(=O)N2CCc3ccccc32)cc1NC(C)=O,15.7
16,CN(C)/C=N/c1ncc(C(=O)OC(C)(C)C)s1,12.3
17,COc1ccc(C(=O)CSc2nccc(=O)[nH]2)cc1,0.908
18,CC1(C(=O)Nc2ccc3c(c2)OCO3)CC1(Cl)Cl (stereo not shown),12.5
19,COc1ccc(-c2nc3n(n2)C(c2ccccc2Cl)C(C(N)=O)=C(C)N3)cc1 (stereo not shown),-27.4
20,CCn1c2ccccc2c2cc(NC(=O)c3cccc(OC)c3)ccc21,13.9
21,COc1ccccc1N1CCN(C(=O)CNC(=O)c2cn(-c3ccccc3OC)c(=O)c3ccccc23)CC1,-15.6
22,CC1(C)CC(NC(=O)COc2cc3oc(=O)c4c(c3cc2Cl)CCC4)CC(C)(C)N1,11.2
23,O=C(CSc1nccc(=O)[nH]1)Nc1ccc(Br)c(Cl)c1,33.3

row,SMILES,"hERG current change (%, negative = inhibition) at 10uM [%]"
1,Cc1cccc(-c2noc(CN(C(=O)/C=C/c3ccccc3Cl)C(C)C)n2)c1,-2.77
2,CC(C)N1CCC(N2CCN(Cc3ccc(C#CC(C)(C)O)s3)CC2CCO)CC1 (stereo not shown),4.56
3,O=C(CC12CC3CC(CC(C3)C1)C2)N/N=C\c1ccc[nH]1,3.75
4,CS(=O)(=O)Nc1ccc(C(=O)NCCC2=CCCCC2)cc1,-38.7
5,Cc1cc(C)c(C)c(OCCCCN2CCCCC2)c1,-52.5
6,CCCOc1cc(CC(=O)NCc2ccco2)ccc1OC,12.7
7,CC1(c2ccccc2)NC(=O)N(CC(=O)NC(=O)NC2CCCC2)C1=O (stereo not shown),0.115
8,Cn1cnc([N+](=O)[O-])c1Nc1ccc(O)cc1,9.63
9,COc1ccccc1CNC(=O)COc1ccc(C)cc1,-2.42
10,C=CCn1c(SCC(=O)N(CCOC)c2c(N)n(CCCC)c(=O)[nH]c2=O)nnc1-c1ccc(Cl)cc1,4.06
11,Cc1ccc2c(c1)N(CC(=O)NCCc1ccccc1)C(=O)c1cccnc1O2,-4.02
12,Fc1ccc(Cn2ccc(-c3cnc(-c4ccccc4)s3)n2)cc1,6.92
13,COc1ccccc1CNC(=O)c1ccccc1N(C)S(C)(=O)=O,-1.07
14,O=C(CCCOc1ccccc1)Nc1ccncc1,8.26
15,NS(=O)(=O)c1cccc(NC(=O)COC(=O)CNC(=O)c2ccc(-c3ccccc3)cc2)c1,5.77
16,CN(C)C(=O)Oc1ccc(OC(=O)c2ccccc2)cc1,7.81
17,CCOc1ccc2c(c1)-c1c(ssc1=S)C(C)(C)N2C(=O)CSC1=NCCS1,13.1
18,Cc1ccc(C(=O)COC(=O)C2CC3CCCC(C2)C3=O)cc1[N+](=O)[O-] (stereo not shown),-7.77
19,COc1ccc2c(c1)C(c1cccs1)=NNC(c1cccnc1)=N2,10.4
20,Cc1ccc2c(c1)cc1c(=O)n(CC(=O)NCCCc3ccccc3)nc(C)n12,18.2
21,N#Cc1cc2c(=O)n3ccccc3nc2n(Cc2cccnc2)c1=O,-21
22,CN(C(=O)CSc1nc2ccccc2s1)c1c(N)n(Cc2ccccc2)c(=O)[nH]c1=O,-5.47
23,COc1n[nH]c(C(=O)Nc2nc3ccccc3s2)c1[N+](=O)[O-],16

row,SMILES,"hERG current change (%, negative = inhibition) at 10uM [%]"
1,Cc1ccc(S(=O)(=O)NCCN2CCNC2=O)cc1,3.9
2,CNC(=O)c1ccccc1Sc1ccccc1C#N,19.1
3,O=C(O)c1ccccc1C(=O)NCCc1ccc(Cl)cc1,19.9
4,CCOc1ccccc1CNC(=O)CCc1cn(C)c2ccccc12,14.5
5,CCc1nn2cc(-c3ccccc3)nc2s1,6.77
6,COc1cccc(-n2nnc3c(=O)n(CC(=O)N4CCCCC4)cnc32)c1,-9.71
7,CCn1c(SCC(=O)Nc2ccc3c(c2)OCCO3)nnc1-c1cccs1,-44.9
8,O=C(O)c1ccc(N=NN2CCOCC2)cc1,1.57
9,COc1cc([N+](=O)[O-])ccc1NC(=O)CSc1ccccn1,8.33
10,OCCN(CC#CCC(O)(c1ccccc1)C1CCCC1)CCO (stereo not shown),7.63
11,CCOC(=O)c1cc2sccc2n1CC(=O)N1CCCC1,-8.74
12,COc1cccc(-c2nc(CSCC(=O)N3CCc4ccccc43)c(C)o2)c1,5.03
13,CCCCCCCOc1ccc(-c2ccc(C#N)cn2)cc1,-11.2
14,CC1CCC2(CC1)C(Nc1cccc(Cl)c1)=NC(=S)N2CC#N (stereo not shown),-1.43
15,O=C(NCc1ccc2c(c1)OCO2)c1cc(=O)[nH]c2ccccc12,7.04
16,CCOC(=O)N1CCC(NC(=O)c2cc(COc3c(C)cccc3C)on2)CC1,-38.3
17,COc1ccccc1CNC(=O)Cn1cccc1C(=O)c1ccccc1,8.74
18,O=C(c1cc2c(s1)-c1ccccc1OC2)N1CCN(c2ccccn2)CC1,-3.38
19,CCC(=O)c1ccc(N2CCN(C(=O)COc3ccccc3F)CC2)c(F)c1,-50.9
20,CN(C)CC1CCCCC1C1(O)c2ccccc2CSc2sccc21 (stereo not shown),-31.3
21,Cc1cccc(OCCCCCn2ccnc2)c1C,-13.7
22,N#Cc1ccc(OCc2nnc(-c3ccc([N+](=O)[O-])cc3)o2)cc1,-41.7

# Source: article PMC4336329 (PLoS ONE, 2015)
